Laboratory results reported in the supplement of paper PMC9927326.

Tests used:
Test in all cases: CLSI broth microdilution.
posaconazole = compound: CC[C@@H]([C@H](C)O)n1ncn(-c2ccc(N3CCN(c4ccc(OC[C@@H]5CO[C@@](Cn6cncn6)(c6ccc(F)cc6F)C5)cc4)CC3)cc2)c1=O [posaconazole]
anidulafungin = compound: CCCCCOc1ccc(-c2ccc(-c3ccc(C(=O)N[C@H]4C[C@@H](O)[C@@H](O)NC(=O)[C@@H]5[C@@H](O)[C@@H](C)CN5C(=O)[C@H]([C@@H](C)O)NC(=O)[C@H]([C@H](O)[C@@H](O)c5ccc(O)cc5)NC(=O)[C@@H]5C[C@@H](O)CN5C(=O)[C@H]([C@@H](C)O)NC4=O)cc3)cc2)cc1 [anidulafungin]
voriconazole = compound: C[C@@H](c1ncncc1F)[C@](O)(Cn1cncn1)c1ccc(F)cc1F [voriconazole]
micafungin = compound: CCCCCOc1ccc(-c2cc(-c3ccc(C(=O)N[C@H]4C[C@@H](O)[C@@H](O)NC(=O)[C@@H]5[C@@H](O)[C@@H](C)CN5C(=O)[C@H]([C@H](O)CC(N)=O)NC(=O)[C@H]([C@H](O)[C@@H](O)c5ccc(O)c(OS(=O)(=O)O)c5)NC(=O)[C@@H]5C[C@@H](O)CN5C(=O)[C@H]([C@@H](C)O)NC4=O)cc3)no2)cc1 [micafungin]
caspofungin = compound: CC[C@H](C)C[C@H](C)CCCCCCCCC(=O)N[C@H]1C[C@@H](O)[C@@H](NCCN)NC(=O)[C@@H]2[C@@H](O)CCN2C(=O)[C@H]([C@H](O)CCN)NC(=O)[C@H]([C@H](O)[C@@H](O)c2ccc(O)cc2)NC(=O)[C@@H]2C[C@@H](O)CN2C(=O)[C@H]([C@@H](C)O)NC1=O [caspofungin]
flucytosine = compound: Nc1[nH]c(=O)ncc1F [flucytosine]
amphotericin B = compound: C[C@@H]1[C@H](O)[C@@H](C)/C=C/C=C/C=C/C=C/C=C/C=C/C=C/[C@H](O[C@@H]2O[C@H](C)[C@@H](O)[C@H](N)[C@@H]2O)C[C@@H]2O[C@](O)(C[C@@H](O)C[C@@H](O)[C@H](O)CC[C@@H](O)C[C@@H](O)CC(=O)O[C@H]1C)C[C@H](O)[C@H]2C(=O)O [amphotericin B]
fluconazole = compound: OC(Cn1cncn1)(Cn1cncn1)c1ccc(F)cc1F [fluconazole]
itraconazole = compound: CCC(C)n1ncn(-c2ccc(N3CCN(c4ccc(OCC5COC(Cn6cncn6)(c6ccc(Cl)cc6Cl)O5)cc4)CC3)cc2)c1=O [itraconazole]

| Test System | MIC (posaconazole) | MIC (anidulafungin) | MIC (voriconazole) | MIC (micafungin) | MIC (caspofungin) | MIC (flucytosine) | MIC (amphotericin B) | MIC (fluconazole) | MIC (itraconazole) |
| --- | --- | --- | --- | --- | --- | --- | --- | --- | --- |
| Candida albicans isolate 182 (Erg11p: V488I,E266D, Fur1p: WT, Tac1p: N896S) | 0.03 mg/L [S] | ≤ 0.015 mg/L [S] | 0.015 mg/L [S] | ≤ 0.008 mg/L [S] | 0.03 mg/L [S] | ≤ 0.06 mg/L [S] | 0.25 mg/L [S] | 0.5 mg/L [S] | 0.06 mg/L [S] |
| Candida albicans isolate 289 (Erg11p: WT, Fur1p: WT, Tac1p: N896S) | 0.015 mg/L [S] | ≤ 0.015 mg/L [S] | ≤ 0.008 mg/L [S] | ≤ 0.008 mg/L [S] | 0.03 mg/L [S] | ≤ 0.06 mg/L [S] | 0.25 mg/L [S] | 0.5 mg/L [S] | 0.03 mg/L [S] |
| Candida albicans isolate 286 (Erg11p: Y257H,A114S, Fur1p: R101C, Tac1p: A736V) | 0.25 mg/L [R] | ≤ 0.015 mg/L [S] | 0.5 mg/L | ≤ 0.008 mg/L [S] | 0.015 mg/L [S] | 0.25 mg/L [S] | 1 mg/L [S] | 8 mg/L [R] | 0.25 mg/L [R] |
| Candida albicans isolate 246 (Erg11p: WT, Fur1p: WT, Tac1p: I558V,A377V,F189S,N174D,M170I,K87N) | 0.015 mg/L [S] | 0.03 mg/L [S] | ≤ 0.008 mg/L [S] | 0.015 mg/L [S] | 0.03 mg/L [S] | ≤ 0.06 mg/L [S] | 0.5 mg/L [S] | 0.25 mg/L [S] | 0.03 mg/L [S] |
| Candida albicans isolate 65 (Erg11p: E266D, Fur1p: WT, Tac1p: C908Y,A377V,N174D,M170I,I109N,K87N) | 0.03 mg/L [S] | 0.06 mg/L [S] | ≤ 0.008 mg/L [S] | 0.015 mg/L [S] | 0.03 mg/L [S] | ≤ 0.06 mg/L [S] | 0.5 mg/L [S] | 0.5 mg/L [S] | 0.06 mg/L [S] |
| Candida albicans isolate 150 (Erg11p: D153E, Fur1p: WT, Tac1p: N896S,I558V,A377V,F189S,N174D,M170I,K87N) | 0.06 mg/L [S] | 0.06 mg/L [S] | 0.015 mg/L [S] | 0.015 mg/L [S] | 0.06 mg/L [S] | 0.12 mg/L [S] | 0.25 mg/L [S] | 1 mg/L [S] | 0.12 mg/L [S] |
| Candida albicans isolate 282 (Erg11p: WT, Fur1p: WT, Tac1p: I558V,A377V,F189S,N174D,M170I,K87N) | 0.015 mg/L [S] | 0.06 mg/L [S] | ≤ 0.008 mg/L [S] | 0.015 mg/L [S] | 0.03 mg/L [S] | ≤ 0.06 mg/L [S] | 0.25 mg/L [S] | ≤ 0.12 mg/L [S] | ≤ 0.015 mg/L [S] |
| Candida albicans isolate 290 (Erg11p: WT, Fur1p: WT, Tac1p: WT) | 0.03 mg/L [S] | 0.03 mg/L [S] | ≤ 0.008 mg/L [S] | 0.015 mg/L [S] | 0.03 mg/L [S] | ≤ 0.06 mg/L [S] | 0.5 mg/L [S] | 0.5 mg/L [S] | 0.03 mg/L [S] |
| Candida albicans isolate 121 (Erg11p: E266D, Fur1p: WT, Tac1p: N896S,I558V,A377V,F189S,N174D,M170I,K87N) | 0.03 mg/L [S] | ≤ 0.015 mg/L [S] | 0.015 mg/L [S] | 0.015 mg/L [S] | 0.03 mg/L [S] | ≤ 0.06 mg/L [S] | 0.5 mg/L [S] | 0.5 mg/L [S] | 0.03 mg/L [S] |
| Candida albicans isolate 293 (Erg11p: D153E, Fur1p: WT, Tac1p: N896S) | 0.03 mg/L [S] | 0.06 mg/L [S] | ≤ 0.008 mg/L [S] | ≤ 0.008 mg/L [S] | 0.03 mg/L [S] | ≤ 0.06 mg/L [S] | 0.5 mg/L [S] | 0.25 mg/L [S] | 0.03 mg/L [S] |
| Candida albicans isolate 300 (Erg11p: V488I,E266D, Fur1p: WT, Tac1p: N896S,I895T) | 0.015 mg/L [S] | ≤ 0.015 mg/L [S] | ≤ 0.008 mg/L [S] | 0.015 mg/L [S] | 0.03 mg/L [S] | ≥ 64 mg/L [R] | 0.25 mg/L [S] | 0.5 mg/L [S] | 0.03 mg/L [S] |
| Candida albicans isolate 206 (Erg11p: E266D,G129A, Fur1p: WT, Tac1p: R869Q,L695F,I558V,A377V,F189S,M170V,L131I) | 0.03 mg/L [S] | 0.03 mg/L [S] | 0.015 mg/L [S] | 0.015 mg/L [S] | 0.06 mg/L [S] | ≤ 0.06 mg/L [S] | 0.5 mg/L [S] | 0.5 mg/L [S] | 0.06 mg/L [S] |
| Candida albicans isolate 203 (Erg11p: WT, Fur1p: WT, Tac1p: I558V,A377V,F189S,N174D,M170I,K87N) | 0.015 mg/L [S] | ≤ 0.015 mg/L [S] | ≤ 0.008 mg/L [S] | 0.015 mg/L [S] | 0.03 mg/L [S] | ≤ 0.06 mg/L [S] | 0.5 mg/L [S] | 0.25 mg/L [S] | ≤ 0.015 mg/L [S] |
| Candida albicans isolate 366 (Erg11p: E266D, Fur1p: WT, Tac1p: I558V,A377V,F189S,N174D,M170I,K87N) | 0.015 mg/L [S] | 0.06 mg/L [S] | ≤ 0.008 mg/L [S] | ≤ 0.008 mg/L [S] | 0.03 mg/L [S] | ≤ 0.06 mg/L [S] | 0.5 mg/L [S] | 0.5 mg/L [S] | 0.06 mg/L [S] |
| Candida albicans isolate 305 (Erg11p: E266D, Fur1p: WT, Tac1p: WT) | 0.015 mg/L [S] | ≤ 0.015 mg/L [S] | ≤ 0.008 mg/L [S] | 0.015 mg/L [S] | 0.015 mg/L [S] | ≤ 0.06 mg/L [S] | 0.5 mg/L [S] | 0.5 mg/L [S] | ≤ 0.015 mg/L [S] |
| Candida albicans isolate 313 (Erg11p: WT, Fur1p: WT, Tac1p: I558V,A377V,F189S,N174D,M170I,K87N) | 0.015 mg/L [S] | ≤ 0.015 mg/L [S] | ≤ 0.008 mg/L [S] | 0.015 mg/L [S] | 0.03 mg/L [S] | ≤ 0.06 mg/L [S] | 0.25 mg/L [S] | 0.25 mg/L [S] | ≤ 0.015 mg/L [S] |

MIC of clinical C. albicans isolates, CLSI broth microdilution (ranges and time not stated); higher = less susceptible. Call: susceptible or wild type [S] / resistant or non-wild type [R] by CLSI breakpoints or epidemiological cut-offs; intermediate and dose-dependent carry no call here (the paper groups them with resistant). '<=' and '>=' mark each drug's lowest and highest value, inferred; the source prints them plain. Isolates are numbered anew.
